# Reference: the supplement of paper PMC3334620
# Over roughly 33,000 sequences, “E-score (-0.5 to 0.5)” has its median near -0.054; the highest 2% begin near 0.39. This is one part of the list.
# Target: Ylr278c (UniProt Q05854)
# Test: PBM E-score (8-mer binding enrichment) (E-score (-0.5 to 0.5)); higher = stronger / more preferred TF binding; most listed sequences are background and not binding sites
# Conditions: protein concentration: 200 nM; construct: GST-DNA-binding domain
# Method in brief: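 E-scores (a modified Wilcoxon-Mann-Whitney statistic) were assigned by the Universal PBM Analysis Suite to every ungapped eight-base word pooled with its reverse complement. The input came from universal all-10-mer Agilent arrays made double-stranded by primer extension and probed with GST-tagged yeast transcription factors at about 100-200 nM. Fluorescent anti-GST detected bound protein, and masliner normalised the scans.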
row,Sequence,PBM E-score
1,ACAGAAAG,-0.0741
2,AGAGTGTC,0.0202
3,ATATGCAT,-0.0843
4,CAGGTCCC,-0.0624
5,AGCACATG,-0.0492
6,GTATAGTA,0.119
7,CTCAAAGA,-0.2
8,AATCTCGT,-0.11
9,CCTCACAA,0.0465
10,TAAAAATA,-0.116
11,ATGAAGTA,-0.15
12,AGTTCAGC,-0.145
13,CGATTGGA,-0.055
14,GTCGTCAA,-0.0942
15,GAATATAC,0.223
16,AACAACAG,-0.0312
17,CAAGGACA,-0.204
18,ACTATAAA,-0.0305
19,GGGCACTA,-0.187
20,ATATCTTG,-0.21
21,AATCGACG,-0.0544
22,CTGGTAGC,-0.131
23,CATAGTCG,-0.106
24,CGTATTGA,-0.17
25,AAGAATGC,-0.00543

row,Sequence,PBM E-score
1,ACCCTCCG,0.328
2,ACCGGACG,0.369
3,AGCGCTTG,0.0403
4,GTGGTAAC,-0.0132
5,CGTCAAAA,-0.00464
6,ATATGGAA,-0.0385
7,ATGTGTGC,-0.152
8,CTTGCGGA,0.291
9,TAGTGCAA,-0.114
10,CATAACGA,-0.131
11,CGCAATAA,0.198
12,ATCTAAGA,-0.231
13,ACGTAACA,-0.141
14,GGACCGAA,0.206
15,AAGGGAAC,-0.163
16,ACGGCCGT,0.185
17,ATTACAGG,0.133
18,ATGACAGA,-0.256
19,ACATATAA,-0.00381
20,GTTAGCCA,0.0392
21,AACTACGT,-0.114
22,GCCGGCAC,0.304
23,GGATGCAC,-0.0646
24,AGTTGGTC,0.0345
25,ATTCGAAA,0.0774

row,Sequence,PBM E-score
1,GGGGCCAC,-0.0168
2,ACGCTCGG,0.295
3,AACGCCCT,-0.182
4,CGGAGGAG,0.417
5,CAACAGCG,-0.069
6,CAAATCGC,0.0116
7,GAGGGACC,-0.222
8,CTTAAGTC,-0.0372
9,CAAGGAGA,-0.105
10,AAAACGAT,-0.0652
11,CCGAACCG,0.367
12,AGCGACAT,-0.166
13,ATTATACA,0.0193
14,CCTCCAAC,-0.212
15,ACGATATA,-0.127
16,CACAGAAG,-0.2
17,TCATCCGA,0.301
18,TAGCAGCA,-0.132
19,CCGACGCG,0.394
20,ACATGCTC,-0.0918
21,TAATGGGA,-0.256
22,ATATAAGC,-0.127
23,CCGTGCCA,0.0908
24,CACGAAAC,-0.0194
25,GGCAAAAC,0.0705

row,Sequence,PBM E-score
1,GCAATACC,0.0113
2,GCGACCTA,-0.134
3,AGGACAAC,-0.163
4,CCTAAGCG,0.0364
5,GCTGGTGA,-0.0569
6,ATAAAAGG,-0.206
7,GAAATTTA,-0.00842
8,GGAAAGAC,0.0636
9,AGTCCAAG,-0.236
10,TCTATTAA,-0.177
11,ACGACTAC,-0.281
12,GCTGTGAC,-0.127
13,TCTGTTCA,-0.233
14,CTATAGGA,-0.218
15,ATCCTCCA,-0.301
16,CAACAGTG,0.0389
17,ACACCCCA,-0.171
18,CGATTGAG,-0.0515
19,ACTATGAG,-0.108
20,GAATTATA,0.0291
21,CTACTACA,0.00999
22,AATGTCGA,-0.0976
23,GGAAGAAC,0.235
24,CGACGACA,-0.145
25,AGGAGTCA,-0.121

row,Sequence,PBM E-score
1,CGTTCGAG,-0.21
2,ACCACGGC,0.0785
3,CAATTGTC,-0.0713
4,ACACTACG,0.064
5,GACTTATA,0.058
6,GCATTGTA,-0.0424
7,ATCTCGGA,0.406
8,AGTGTCGA,-0.187
9,CGGGCTTC,0.366
10,ACAGGAAC,-0.211
11,TTCATAAA,-0.12
12,GGCGACGA,-0.172
13,AAATGCGA,0.087
14,ACGTGGCA,-0.2
15,CCGCCTCG,0.187
16,AGGTTGTA,-0.122
17,ACCCACGG,-0.0126
18,GCGCGGAC,0.294
19,GTAATTTA,-0.0255
20,CCCTGGTC,-0.177
21,CCCAATGC,-0.149
22,ACCTGAAT,-0.0345
23,ACCAAAGG,-0.224
24,CGTTTTAA,-0.117
25,CTAGATTC,-0.165

row,Sequence,PBM E-score
1,CTAACTCA,-0.226
2,ATCGAACA,-0.0938
3,CGGATGGC,0.135
4,ACATTTTA,-0.00659
5,GCGTTCGA,-0.11
6,ATTCGGGC,0.18
7,CTACTCAC,-0.0555
8,ACTCCACA,-0.0234
9,AACGGTTG,-0.172
10,AGACGGAA,0.238
11,ACGAATTA,-0.126
12,TCCCTAAA,-0.0873
13,GAGTATAA,0.0928
14,AAAGTGAA,0.0105
15,AAGTGACT,-0.201
16,CCTGGTGA,-0.11
17,CAATCTCC,0.375
18,AACCCGAC,0.255
19,GCCAGAGC,-0.222
20,GGCGCAAA,0.124
21,AGCCCAAA,0.13
22,CCCGCCAA,0.193
23,CGGGCGGC,0.31
24,ACAGCAGT,-0.139
25,CGAAGCGA,0.0545

row,Sequence,PBM E-score
1,AAACTCAA,-0.038
2,ATGTTTCC,0.151
3,CGTGGGTC,-0.163
4,AGAGGGAC,-0.19
5,GAGTCGGA,0.387
6,GGTGCAAC,0.113
7,AGGACGCG,-0.114
8,CACGACCG,0.00364
9,AGCTCGCG,0.0279
10,ACGCCGAG,0.296
11,AAAAGACG,-0.0309
12,ACAAGTTA,0.0955
13,ACGTCTGC,-0.205
14,CAGTAGAG,-0.304
15,CTGGCAAG,-0.195
16,AGCTTATG,-0.148
17,ATTATCTC,0.0905
18,CGGTTCGA,0.075
19,AGAGCCGG,0.303
20,TAAGGAAA,-0.131
21,ATTGTTAC,-0.0111
22,GGCTGGTA,-0.0823
23,CCATCGGG,0.259
24,AGGTGCAG,-0.16
25,AGTTGTGC,-0.114

row,Sequence,PBM E-score
1,CCGATTCC,0.393
2,ATACTGGC,-0.241
3,GAATTCTC,0.164
4,AGAGCCCA,-0.203
5,GATCCACC,-0.196
6,AACGTGGT,-0.273
7,GAAAGCCC,0.193
8,ATGAAGAA,-0.0491
9,GCTCATAC,-0.0327
10,AGTCTATG,-0.373
11,ATCAAGCA,-0.087
12,TATGACGA,0.0295
13,CTGCGGTC,-0.00227
14,CCAGTATA,-0.0769
15,CCTTAAAA,-0.336
16,ATCCATAG,0.0115
17,AAGGCACT,-0.187
18,TGAGACAA,-0.0146
19,ATGCGGTG,-0.0702
20,GAACCATA,0.0607
21,CCTTGAAA,-0.13
22,ATAAGCAA,-0.0897
23,TGAGTACA,-0.156
24,CCCTATGA,-0.181
25,CCATTGCG,0.082

row,Sequence,PBM E-score
1,CTCATTAA,-0.0505
2,TCATTGGA,-0.202
3,TGATGAAA,-0.166
4,GCAGGAAA,-0.0863
5,CCGGTAGC,0.217
6,CTCAGTTA,0.0398
7,CGAAGAAC,0.02
8,AGTCTCTA,-0.285
9,AATTAGTA,-0.116
10,GTGCGAGA,-0.176
11,CGGTCGAG,0.0809
12,CTCTCTCC,0.0749
13,ATTGCACG,0.101
14,CTCCCTGC,-0.151
15,ACACCTCG,0.0951
16,GAGGACGA,0.0565
17,CAGTCAGC,-0.193
18,CTTCAAAA,-0.099
19,AAAATGGA,0.168
20,ACTCAATA,-0.101
21,GAATCGAA,-0.058
22,CATGTACG,-0.0652
23,GCTTTATA,0.095
24,GCAATAAC,0.0921
25,GACCGACA,0.209

row,Sequence,PBM E-score
1,ATAGTATA,0.0747
2,AATAGGAC,-0.0636
3,AATCGTAC,-0.0876
4,CAGCGTTC,-0.0694
5,AATGTATA,0.0371
6,GCATGGAA,0.0414
7,ACGTGACA,-0.198
8,ACTGGACA,-0.189
9,GACCGAGC,0.0856
10,ACTACTCT,-0.173
11,ACACCGAA,0.217
12,AGCGTCTA,-0.195
13,GTCCGTCA,0.289
14,AGAAACCT,-0.0176
15,AGCAGCAC,-0.292
16,TACAACTA,-0.153
17,ATGAAACA,-0.0545
18,AGGGGTCG,-0.192
19,CTGCTGAA,-0.2
20,CTGTCGTC,-0.18
21,GACCAGCC,0.121
22,AACACTAT,-0.0375
23,AGTGTCAC,-0.071
24,CCGTGCAA,0.115
25,AGAGTAAG,-0.13

row,Sequence,PBM E-score
1,GGATGACC,0.0307
2,GAGGAGGA,-0.246
3,CCCTGCCG,0.0898
4,AATTATTG,0.0721
5,ACCGGTAA,0.297
6,GTGTCGTA,-0.209
7,ACCGTTAG,-0.177
8,AGCCAATG,-0.236
9,AATATGAC,-0.0637
10,CCTATTAA,0.0486
11,CTCTCAGA,-0.312
12,ACTCGTGG,-0.213
13,CAGATAAC,0.123
14,GCCGTACA,0.0776
15,CCCGCATA,0.176
16,AGAGAGGA,-0.213
17,ATTTCTGC,0.184
18,CTTAAGCA,-0.0791
19,CCGCCAAC,0.234
20,GTGAGAAA,0.0525
21,CCACGGGG,0.108
22,AAAGAGTT,-0.257
23,AAACAACC,-0.0624
24,GTTAGAAA,-0.0403
25,AAAGTCCG,0.482

row,Sequence,PBM E-score
1,AGACTGAA,-0.00088
2,ACCTCCAT,-0.0796
3,CCCGTTCG,0.0705
4,AACTTGGT,-0.115
5,CACGAGAC,-0.0922
6,CCGAACTA,0.316
7,ATTCAGAG,0.0283
8,GTCGGTCA,0.0634
9,ACGCCTAG,-0.289
10,AAACGGTT,-0.183
11,CGGGTCAC,-0.00367
12,CGTATCAG,0.0563
13,AGAATCGA,-0.141
14,GTGCGTCA,0.0395
15,CAACTAGC,0.0478
16,CTTTTAAC,-0.146
17,GTGCCGTA,0.0749
18,GGTACGCA,-0.126
19,CGGACAGA,0.29
20,CCCGGACA,0.405
21,ATCCAGCC,-0.0184
22,CTTATGTA,-0.127
23,TAACGTAA,-0.145
24,ACACGCGA,-0.174
25,TAGATTCA,-0.283

row,Sequence,PBM E-score
1,CTGCTAAA,-0.0313
2,GCGGGACA,0.214
3,AGTTACAT,-0.247
4,CGTGGCGC,-0.0166
5,AAACGTAA,-0.142
6,ATATCACA,-0.283
7,AGATGGTA,0.0643
8,CACGGGTA,-0.243
9,CAAGGGAC,-0.32
10,AGCGTCTG,-0.136
11,ACCCTTAG,-0.305
12,TATTCAGA,-0.18
13,ATCGTTCC,0.0747
14,CAGTAAGG,-0.174
15,CTTAGCGC,0.133
16,AAACGAAT,-0.0901
17,AGAACGAC,-0.174
18,ACCGTGCT,-0.226
19,GGACCGCC,0.182
20,CGCTCGAC,-0.16
21,TCGGATCA,0.225
22,CTCCTGAC,-0.0625
23,CAGGTATG,-0.131
24,AGTATTGG,-0.229
25,AAAAAGCA,-0.289

row,Sequence,PBM E-score
1,GAGTTCAC,0.0107
2,TACCAATA,-0.145
3,AAAGGATG,-0.189
4,AAAGTCAC,-0.163
5,CCACATAG,0.0447
6,TCACTACA,0.00155
7,CCCCCTAA,-0.321
8,CCCTTTCG,0.116
9,AACTTCAC,-0.214
10,AGGCTAGC,-0.282
11,AGTTCTAG,-0.021
12,CAGCCAAG,-0.217
13,AACTGGGG,0.00524
14,ATGTAACG,0.0305
15,AAAGACAC,-0.0398
16,ATACTACC,-0.0824
17,CGAACAAC,0.0958
18,ATAATACA,0.0827
19,CGTCAGCC,0.127
